# Data reported in publication PMC9911399, “Two distinct binding modes provide the RNA-binding protein RbFox with extraordinary sequence specificity”.
# Changes are numbered by the printed parent chain; changes in the protein carry UniProt numbers. Some of the results follow.
# T1: RBFOX1 RRM RbFoxmut (Fox-RRM*) (Homo sapiens, UniProt Q9NWB1 109-208, R118D;E147R;N151S;E152T)
# T1 sequence: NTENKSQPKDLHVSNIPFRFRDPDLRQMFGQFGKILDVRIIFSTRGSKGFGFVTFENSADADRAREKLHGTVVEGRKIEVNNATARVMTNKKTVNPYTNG
# B1: AACUGAG (DNA:RNA)
# RNA: GGGAGACCGGAAUUCAGAUUGUCCAACUGAGUUAAAUCCCGUCGUAGCCACCA
# DNA 1: CAATCTGAATTCCGGTCTCCC
# DNA 2: TGGTGGCTACGACGGGATT
# B2: CUCGCGC (DNA:RNA)
# RNA: B1 RNA with A25C, A26U, U28G, G29C, A30G, G31C
# DNA 1: CAATCTGAATTCCGGTCTCCC
# DNA 2: TGGTGGCTACGACGGGATT
# B3: AUCUGGG (DNA:RNA)
# RNA: B1 RNA with A26U, A30G
# DNA 1: CAATCTGAATTCCGGTCTCCC
# DNA 2: TGGTGGCTACGACGGGATT
# B4: AGAGAUC (DNA:RNA)
# RNA: B1 RNA with A26G, C27A, U28G, G29A, A30U, G31C
# DNA 1: CAATCTGAATTCCGGTCTCCC
# DNA 2: TGGTGGCTACGACGGGATT
# B5: GGUGGAC (DNA:RNA)
# RNA: B1 RNA with A25G, A26G, C27U, U28G, G31C
# DNA 1: CAATCTGAATTCCGGTCTCCC
# DNA 2: TGGTGGCTACGACGGGATT
# B6: CCAUCAC (DNA:RNA)
# RNA: B1 RNA with A25C, A26C, C27A, G29C, G31C
# DNA 1: CAATCTGAATTCCGGTCTCCC
# DNA 2: TGGTGGCTACGACGGGATT
# B7: UCAGACA (DNA:RNA)
# RNA: GGGAGACCGGAAUUCAGAUUGUCCUCAGACAUUAAAUCCCGUCGUAGCCACCA
# DNA 1: CAATCTGAATTCCGGTCTCCC
# DNA 2: TGGTGGCTACGACGGGATT
# B8: CCUGCUG (DNA:RNA)
# RNA: B7 RNA with U25C, A27U, A29C, C30U, A31G
# DNA 1: CAATCTGAATTCCGGTCTCCC
# DNA 2: TGGTGGCTACGACGGGATT
# B9: GCGGGAG (DNA:RNA)
# RNA: B1 RNA with A25G, A26C, C27G, U28G
# DNA 1: CAATCTGAATTCCGGTCTCCC
# DNA 2: TGGTGGCTACGACGGGATT
# B10: AUAGCGU (DNA:RNA)
# RNA: B7 RNA with U25A, C26U, A29C, C30G, A31U
# DNA 1: CAATCTGAATTCCGGTCTCCC
# DNA 2: TGGTGGCTACGACGGGATT
# B11: UAGGCGC (DNA:RNA)
# RNA: B7 RNA with C26A, A27G, A29C, C30G, A31C
# DNA 1: CAATCTGAATTCCGGTCTCCC
# DNA 2: TGGTGGCTACGACGGGATT
# B12: ACGAACU (DNA:RNA)
# RNA: B7 RNA with U25A, A27G, G28A, A31U
# DNA 1: CAATCTGAATTCCGGTCTCCC
# DNA 2: TGGTGGCTACGACGGGATT
# B13: UUAUGGU (DNA:RNA)
# RNA: B1 RNA with A25U, A26U, C27A, A30G, G31U
# DNA 1: CAATCTGAATTCCGGTCTCCC
# DNA 2: TGGTGGCTACGACGGGATT
# B14: CCUCUGA (DNA:RNA)
# RNA: B7 RNA with U25C, A27U, G28C, A29U, C30G
# DNA 1: CAATCTGAATTCCGGTCTCCC
# DNA 2: TGGTGGCTACGACGGGATT
# B15: AAGUUUC (DNA:RNA)
# RNA: B1 RNA with C27G, G29U, A30U, G31C
# DNA 1: CAATCTGAATTCCGGTCTCCC
# DNA 2: TGGTGGCTACGACGGGATT
# B16: CGAUGUG (DNA:RNA)
# RNA: B1 RNA with A25C, A26G, C27A, A30U
# DNA 1: CAATCTGAATTCCGGTCTCCC
# DNA 2: TGGTGGCTACGACGGGATT
# B17: CGGGGUU (DNA:RNA)
# RNA: B1 RNA with A25C, A26G, C27G, U28G, A30U, G31U
# DNA 1: CAATCTGAATTCCGGTCTCCC
# DNA 2: TGGTGGCTACGACGGGATT
# B18: ACGGGGU (DNA:RNA)
# RNA: B1 RNA with A26C, C27G, U28G, A30G, G31U
# DNA 1: CAATCTGAATTCCGGTCTCCC
# DNA 2: TGGTGGCTACGACGGGATT
# B19: AGUUACC (DNA:RNA)
# RNA: B1 RNA with A26G, C27U, G29A, A30C, G31C
# DNA 1: CAATCTGAATTCCGGTCTCCC
# DNA 2: TGGTGGCTACGACGGGATT
# B20: UUUGGCA (DNA:RNA)
# RNA: B7 RNA with C26U, A27U, A29G
# DNA 1: CAATCTGAATTCCGGTCTCCC
# DNA 2: TGGTGGCTACGACGGGATT
# B21: GCAGAAC (DNA:RNA)
# RNA: B7 RNA with U25G, C30A, A31C
# DNA 1: CAATCTGAATTCCGGTCTCCC
# DNA 2: TGGTGGCTACGACGGGATT
# B22: UAAGGCU (DNA:RNA)
# RNA: B7 RNA with C26A, A29G, A31U
# DNA 1: CAATCTGAATTCCGGTCTCCC
# DNA 2: TGGTGGCTACGACGGGATT
# B23: AUGAGAA (DNA:RNA)
# RNA: B1 RNA with A26U, C27G, U28A, G31A
# DNA 1: CAATCTGAATTCCGGTCTCCC
# DNA 2: TGGTGGCTACGACGGGATT
# B24: UCUGAGG (DNA:RNA)
# RNA: B7 RNA with A27U, C30G, A31G
# DNA 1: CAATCTGAATTCCGGTCTCCC
# DNA 2: TGGTGGCTACGACGGGATT
# B25: GUGUUUU (DNA:RNA)
# RNA: B1 RNA with A25G, A26U, C27G, G29U, A30U, G31U
# DNA 1: CAATCTGAATTCCGGTCTCCC
# DNA 2: TGGTGGCTACGACGGGATT
# B26: GAAGGAU (DNA:RNA)
# RNA: B1 RNA with A25G, C27A, U28G, G31U
# DNA 1: CAATCTGAATTCCGGTCTCCC
# DNA 2: TGGTGGCTACGACGGGATT
# B27: AACAGUC (DNA:RNA)
# RNA: B1 RNA with U28A, A30U, G31C
# DNA 1: CAATCTGAATTCCGGTCTCCC
# DNA 2: TGGTGGCTACGACGGGATT
# B28: CGGGGAU (DNA:RNA)
# RNA: B1 RNA with A25C, A26G, C27G, U28G, G31U
# DNA 1: CAATCTGAATTCCGGTCTCCC
# DNA 2: TGGTGGCTACGACGGGATT
# B29: GUGCAAG (DNA:RNA)
# RNA: B1 RNA with A25G, A26U, C27G, U28C, G29A
# DNA 1: CAATCTGAATTCCGGTCTCCC
# DNA 2: TGGTGGCTACGACGGGATT
# B30: AGCCCUU (DNA:RNA)
# RNA: B1 RNA with A26G, U28C, G29C, A30U, G31U
# DNA 1: CAATCTGAATTCCGGTCTCCC
# DNA 2: TGGTGGCTACGACGGGATT
# B31: AUCACCA (DNA:RNA)
# RNA: B1 RNA with A26U, U28A, G29C, A30C, G31A
# DNA 1: CAATCTGAATTCCGGTCTCCC
# DNA 2: TGGTGGCTACGACGGGATT
# Target: T1, RBFOX1 RRM RbFoxmut (Fox-RRM*)
# Experiment: EMSA; HiTS-Eq, 1 nM pool, 10 min; buffer printed only for the single-RNA assays: 10 mM Tris pH 7.5, 150 mM NaCl, 3.4 mM EDTA, 0.001% NP-40, 30 C
# Settings: tags: His6 N-terminal (pET28a); label: 5' 32P
# Outline: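 Purified RbFox RRM, wild type or mutant, was incubated for 10 min in 50 µL with 1 nM of a 5′-radiolabelled RNA pool carrying 7 randomized nucleotides, whose flanks were annealed to DNA oligonucleotides, over a series of increasing protein concentrations. Unbound RNA was resolved on 8% native PAGE, cut out, reverse-transcribed, barcoded by PCR and sequenced on an Illumina HiSeq 2500. Relative association constants were derived from changes in read counts for each RNA species versus the control reaction and normalised to the cognate motif.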
row,Binder,binding signal
1,B1,0.0628 KA relative to UGCAUGU
2,B2,0.111 KA relative to UGCAUGU
3,B3,0.0633 KA relative to UGCAUGU
4,B4,0.0595 KA relative to UGCAUGU
5,B5,0.0584 KA relative to UGCAUGU
6,B6,0.0888 KA relative to UGCAUGU
7,B7,0.0591 KA relative to UGCAUGU
8,B8,0.096 KA relative to UGCAUGU
9,B9,0.135 KA relative to UGCAUGU
10,B10,0.122 KA relative to UGCAUGU
11,B11,0.0905 KA relative to UGCAUGU
12,B12,0.0682 KA relative to UGCAUGU
13,B13,0.1 KA relative to UGCAUGU
14,B14,0.126 KA relative to UGCAUGU
15,B15,0.0938 KA relative to UGCAUGU
16,B16,0.151 KA relative to UGCAUGU

row,Binder,binding signal
1,B17,0.115 KA relative to UGCAUGU
2,B18,0.127 KA relative to UGCAUGU
3,B19,0.0794 KA relative to UGCAUGU
4,B20,0.112 KA relative to UGCAUGU
5,B21,0.0928 KA relative to UGCAUGU
6,B22,0.0846 KA relative to UGCAUGU
7,B23,0.132 KA relative to UGCAUGU
8,B24,0.0837 KA relative to UGCAUGU
9,B25,0.0966 KA relative to UGCAUGU
10,B26,0.0486 KA relative to UGCAUGU
11,B27,0.0345 KA relative to UGCAUGU
12,B28,0.0914 KA relative to UGCAUGU
13,B29,0.134 KA relative to UGCAUGU
14,B30,0.0649 KA relative to UGCAUGU
15,B31,0.0972 KA relative to UGCAUGU
